According to patent US20180344844A1 (SCHOLAR ROCK, published 2018):

Columns and labels:
proGDF8 (mouse) = proGDF8 (mouse) (mouse, UniProt O08689 25-376); assay: cell-based or functional assay
proGDF11 (human) [1] = molecular target: T1, proGDF11 (human) (human, UniProt O95390 25-407); assay: ForteBio Octet BLI; antigen on biosensor, antibody in solution
T1 construct: domain: proGDF11 (prodomain plus growth factor domain)

Mature GDF11 = molecular target: T2, Mature GDF11 (UniProt O95390 299-407, limits assumed); assay: as above
T2 construct: mature; also called GDF11 mature growth factor

Pro Activin A = molecular target: T3, Pro Activin A (human, UniProt P08476 21-426); assay: as above
T3 construct: domain: pro form (prodomain plus growth factor domain)
T3 sequence (looked up): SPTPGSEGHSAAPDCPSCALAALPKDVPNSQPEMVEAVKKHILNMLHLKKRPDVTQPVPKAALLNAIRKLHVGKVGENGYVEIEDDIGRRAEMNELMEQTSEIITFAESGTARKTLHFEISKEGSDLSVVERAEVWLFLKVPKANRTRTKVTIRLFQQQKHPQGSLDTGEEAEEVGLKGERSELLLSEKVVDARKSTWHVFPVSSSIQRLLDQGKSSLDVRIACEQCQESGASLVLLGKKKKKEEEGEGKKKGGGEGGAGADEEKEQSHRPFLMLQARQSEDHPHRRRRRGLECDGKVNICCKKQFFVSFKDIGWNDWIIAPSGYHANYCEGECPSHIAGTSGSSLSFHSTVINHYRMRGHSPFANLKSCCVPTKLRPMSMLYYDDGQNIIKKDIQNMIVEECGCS

Mature Activin A = molecular target: T4, Mature Activin A (UniProt P08476 311-426); assay: as above
T4 construct: mature; also called Activin A growth factor
T4 sequence (looked up): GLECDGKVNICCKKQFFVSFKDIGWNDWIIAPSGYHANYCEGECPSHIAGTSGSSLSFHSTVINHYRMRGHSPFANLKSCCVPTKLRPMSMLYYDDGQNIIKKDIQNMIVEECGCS

BMP 9 = molecular target: T5, BMP 9 (UniProt Q9UK05 320-429, limits assumed); assay: as above
T5 construct: mature
T5 sequence (looked up): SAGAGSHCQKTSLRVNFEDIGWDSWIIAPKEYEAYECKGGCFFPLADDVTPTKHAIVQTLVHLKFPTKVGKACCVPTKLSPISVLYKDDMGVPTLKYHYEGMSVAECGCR

BMP10 = molecular target: T6, BMP10 (UniProt O95393 317-424, limits assumed); assay: as above
T6 construct: mature
T6 sequence (looked up): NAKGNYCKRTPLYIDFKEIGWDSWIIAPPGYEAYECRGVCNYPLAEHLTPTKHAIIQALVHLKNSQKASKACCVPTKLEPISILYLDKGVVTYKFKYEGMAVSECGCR

Mature TGFB1 = molecular target: T7, Mature TGFB1 (UniProt P01137 in part); assay: as above
T7 construct: mature; also called mature TGFβ1

proGDF11 (human) [2] = molecular target: T1, proGDF11 (human); assay: ForteBio BLI; biotinylated proGDF11 on streptavidin tip, 30 µg/mL antibody, response after 5 minutes of association relative to proGDF8

B1: Ab2 (germlined Ab1), IgG4 (S228P), lambda (antibody)
heavy: QVQLVESGGGVVQPGRSLRLSCAASGFTFSSYGMHWVRQAPGKGLEWVAVISYDGSNKYYADSVKGRFTISRDNSKNTLYLQMNSLRAEDTAVYYCARDLLVRFLEWSHYYGMDVWGQGTTVTVSSASTKGPSVFPLAPCSRSTSESTAALGCLVKDYFPEPVTVSWNSGALTSGVHTFPAVLQSSGLYSLSSVVTVPSSSLGTKTYTCNVDHKPSNTKVDKRV[gap - human IgG4 Fc with S228P (EU numbers)]
light: QSVLTQPPSASGTPGQRVTISCSGSSSNIGSNTVHWYQQLPGTAPKLLIYSDNQRPSGVPDRFSGSKSGTSASLAISGLQSEDEADYYCAAWDDSLNGVFGGGTKLTVLGQPKAAPSVTLFPPSSEELQANKATLVCLISDFYPGAVTVAWKADSSPVKAGVETTTPSKQSNNKYAASSYLSLTPEQWKSHRSYSCQVTHEGSTVEKTVAPTECS
Activity Assay - 293T cells EC50 (proGDF8 (mouse)): 0.714 µM | binding result (proGDF11 (human) [1]): no binding (tested: 50 µg/mL) | binding result (Mature GDF11): no binding (tested: 50 µg/mL) | binding result (Pro Activin A): no binding (tested: 50 µg/mL) | binding result (Mature Activin A): no binding (tested: 50 µg/mL) | binding result (BMP 9): no binding (tested: 50 µg/mL) | binding result (BMP10): no binding (tested: 50 µg/mL) | binding result (Mature TGFB1): no binding (tested: 50 µg/mL) | GDF11 response, expressed as a percentage of GDF8 response (proGDF11 (human) [2]): 0.81%
